Reference: the BET-seq Pho4 binding data (Le et al. 2018)
The list shows a part of the results. The energies were worked out here from pooled read counts, against the library average; single values are noisy.

The sequences below were run against T1, Pho4 (S. cerevisiae) (UniProt P07270) (assay: relative binding free energy (BET-seq); higher = weaker binding). Settings: reference: library average.
T1 sequence: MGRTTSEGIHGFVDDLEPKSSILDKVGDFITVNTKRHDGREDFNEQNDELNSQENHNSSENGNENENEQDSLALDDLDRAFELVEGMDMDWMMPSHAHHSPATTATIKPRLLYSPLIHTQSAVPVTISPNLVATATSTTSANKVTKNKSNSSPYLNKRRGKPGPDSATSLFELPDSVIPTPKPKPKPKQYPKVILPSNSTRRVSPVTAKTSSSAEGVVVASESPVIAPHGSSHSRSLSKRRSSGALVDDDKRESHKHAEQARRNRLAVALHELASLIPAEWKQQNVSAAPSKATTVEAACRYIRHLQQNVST

| Sequence | relative binding free energy [kcal/mol] |
| --- | --- |
| TCATGCACGTGATTTA | 0.14 |
| CATAGCACGTGGGAGG | -0.33 |
| TTGTACACGTGATACT | 0.19 |
| ACGGCCACGTGATGGG | 0.07 |
| GTAGTCACGTGGTGAC | 0.07 |
| AAGAACACGTGTTTGG | 0.11 |
| CGGGTCACGTGAGGGC | 0.22 |
| AGATTCACGTGGTGCT | 0.17 |
| CGGTGCACGTGAGCGG | 0.15 |
| CAGATCACGTGATAGG | 0.39 |
| GGTAGCACGTGGATAA | 0.04 |
| GAATTCACGTGGTGGC | 0.37 |
| TAGTTCACGTGAGGGA | 0.37 |
| TATGACACGTGAATGT | 0.27 |
| GGGGGCACGTGTCATA | -0.12 |
| TGATCCACGTGGGTCG | 0.13 |
| CAGGGCACGTGCTGGT | -0.22 |
| TTTCGCACGTGATAGT | 0.12 |
| TGGAGCACGTGCTGAT | -0.1 |
| CGGGGCACGTGATTGT | -0.06 |
| TTCGGCACGTGTTATT | -0.12 |

| Sequence | relative binding free energy [kcal/mol] |
| --- | --- |
| GATTACACGTGCGTTG | 0.21 |
| GGGGACACGTGTAGCT | -0.05 |
| ATATGCACGTGAAGAT | 0.2 |
| CGGGGCACGTGACAGT | 0.08 |
| TGCGACACGTGTGGCG | 0.03 |
| ATAATCACGTGTTCGG | 0.04 |
| ATGCTCACGTGGTGGG | 0.21 |
| GGATACACGTGGGTCT | -0.07 |
| TCTAGCACGTGATGTG | -0.08 |
| GATTACACGTGAGTGA | 0.25 |
| AGGTACACGTGCGGAG | 0.09 |
| AGGTGCACGTGAAGTT | 0.12 |
| TCAGGCACGTGTAGGT | -0.19 |
| AAATGCACGTGTGGGC | -0.18 |
| TGTGCCACGTGGAGGG | -0.1 |
| ATTGACACGTGAAGGG | 0.24 |
| AGTGTCACGTGCAGGG | 0 |
| GTTCGCACGTGGGAAG | -0.06 |
| GTTTGCACGTGTGCAT | 0.08 |
| CGTGACACGTGGGGCG | -0.1 |
| TATAACACGTGTGTAT | -0.06 |

| Sequence | relative binding free energy [kcal/mol] |
| --- | --- |
| GAGTGCACGTGCGGCG | -0.04 |
| TAAGACACGTGTGCTT | 0.09 |
| TTGGTCACGTGACTTT | 0.2 |
| AGTTTCACGTGTTCGG | 0.24 |
| TTGGGCACGTGATTAT | 0.11 |
| GAGTACACGTGTGTGT | 0.06 |
| GAATGCACGTGGTTAT | -0.12 |
| TGTTGCACGTGGTGGG | -0.02 |
| TCTATCACGTGTTTGG | 0.19 |
| GTAAGCACGTGAGTGC | 0.29 |
| TTGGTCACGTGGGTCG | -0.04 |
| AATGGCACGTGTTTCT | -0.03 |
| TTATGCACGTGGGCTT | -0.14 |
| TTATTCACGTGATTTC | 0.23 |
| TTTTCCACGTGATATG | 0.1 |
| GTATGCACGTGATTGC | 0.11 |
| TTGCGCACGTGGGCAG | -0.23 |
| TTTCGCACGTGTGTGG | -0.05 |
| GGGGACACGTGTTGGG | 0.16 |
| TCGATCACGTGTGATG | 0.19 |
| TGAGTCACGTGGGTGG | 0 |
